The source gives no read counts; variants with many changes may rest on few reads.
B1: LINE1-full (parent)
chain: UACGUAGGUGGUUUUCCCCUGAUAGUGCUAAGGGGGCCUGGAAGUUUGGACUGGGCAGAGCUCAACACAGCGUGGCAAAGUGGCUGUGGCUAGACUGCCUCUCUGGAUUCCUCGUCACUCAGCAGGGCAUCUCUGAGAGAAAUGCC

Variants of: B1
Assay: self-cleavage, relative activity (ratio to wild type); higher = more cleavage; in vitro, sequencing; the parent is a self-cleaving ribozyme
With C18U A57G U109A U130A A140G the self-cleavage was 0.66. For C18U A67G A94G A140G, the self-cleavage was 0.23. In the case of C18U A78G U109A U112C, the self-cleavage is reported as 0.72. With C18U A92U U143C the self-cleavage was 0.72. C18U A94G U112C A142G showed a self-cleavage of 0. In the case of C18U C51U A140U, the self-cleavage is reported as 1.18. In the case of C18U C95U U96C, the self-cleavage is reported as 0.09. C18U G36C U47C U109C U119C gave a self-cleavage of 1.72. C18U G49A C146U gave a self-cleavage of 1.07. In the case of C18U U20A A92G, the self-cleavage is reported as 0. In the case of C18U U20C U130C, the self-cleavage is reported as 1.73. C18U U26A A30C A50G A69G showed a self-cleavage of 0. C18U U39C U62A gave a self-cleavage of 0.22. With C18U U45C U109A U115G G122A the self-cleavage was 1.25. C18U U62A U102C C146U gave a self-cleavage of 0.05. With C18U U87A U108C U109C C120U C145U the self-cleavage was 0.08. For C19A A22G A77G A138G A141G U143A, the self-cleavage was 2.51. Work on C19A A24U A136U yielded a self-cleavage of 0.46. Variant C19A A24U U62C A94G U108C has a self-cleavage of 0. Work on C19A A59G U62A A69U U81C yielded a self-cleavage of 0. C19A A64C U104A U143C showed a self-cleavage of 0.15. C19A G33U U45C U73A showed a self-cleavage of 1.74. With C19A U96A A107G A142G the self-cleavage was 0.15. Work on C19A U96C G144A yielded a self-cleavage of 0.35. C19A U96C U112A gave a self-cleavage of 0.08. Variant C19G A31G U87A U104A A138G has a self-cleavage of 0. For C19G U20C U73A, the self-cleavage was 0.89. C19G U46C U81C gave a self-cleavage of 0. C19G U108C A121G showed a self-cleavage of 1.23. With C19U A22G A31C the self-cleavage was 0.39. For C19U A22G G125A, the self-cleavage was 0.72. C19U A22G U52A U119C showed a self-cleavage of 1.19. Variant C19U A22G U62A A69U A79G has a self-cleavage of 0.09. With C19U A24U A50G A121U A124G the self-cleavage was 0.38. Variant C19U A30C U100A A142G has a self-cleavage of 0.64. For C19U A30G A77U U91C, the self-cleavage was 0.91. Work on C19U A30G U47G G114A yielded a self-cleavage of 1.4. With C19U A31G U100C the self-cleavage was 1.41. Work on C19U A42G A77U U85A A124G A129U yielded a self-cleavage of 0.04. Work on C19U A59U A69C C90U U104C yielded a self-cleavage of 0.02. Variant C19U A59U U85C U132C has a self-cleavage of 0.24. For C19U A65G U104A U119C, the self-cleavage was 0.66. C19U A65G U130A A141G showed a self-cleavage of 0.07. Variant C19U A65U U91C has a self-cleavage of 0.09. Work on C19U A67G U102C yielded a self-cleavage of 1.25. Variant C19U A69G U119A U134C has a self-cleavage of 0.2. C19U A77G U102C A129G showed a self-cleavage of 0.61. Variant C19U A78G A79U U109A has a self-cleavage of 0.55. Work on C19U A78G U130C yielded a self-cleavage of 0.65. With C19U A92G U104A the self-cleavage was 0.07. For C19U A107G U119A A141G, the self-cleavage was 1.43. C19U A117U A141G showed a self-cleavage of 1.23. C19U C37A A124G showed a self-cleavage of 0.65. In the case of C19U C56U A65U U96C, the self-cleavage is reported as 0.04. Variant C19U G40A U62C G125A has a self-cleavage of 0.05. C19U G44A U52C A59G U104A showed a self-cleavage of 0. Variant C19U G49U A59G has a self-cleavage of 0. C19U U20A U85A gave a self-cleavage of 0.05. For C19U U20C G89A, the self-cleavage was 0.06. With C19U U20C U91C the self-cleavage was 0.33. C19U U26C A43U A69U showed a self-cleavage of 0.06. C19U U29A U91C U132A showed a self-cleavage of 0.12. Work on C19U U29C U102A yielded a self-cleavage of 0.25. Variant C19U U39G U109C has a self-cleavage of 1.28. In the case of C19U U45C A67G A129G, the self-cleavage is reported as 0. Variant C19U U46A U73A U112A has a self-cleavage of 0.92. Work on C19U U46G A141U A142G yielded a self-cleavage of 1.26. Variant C19U U47A A64U A78G U81C U102C has a self-cleavage of 0. In the case of C19U U47C A142C, the self-cleavage is reported as 1.53. For C19U U62A A67C U87C, the self-cleavage was 0. In the case of C19U U87C U132C, the self-cleavage is reported as 0.22. With C19U U109C A141G the self-cleavage was 1.51. With C19U U112A A140G the self-cleavage was 1.31. In the case of C19U U119C A141G, the self-cleavage is reported as 1.62. C19U U119C C145U showed a self-cleavage of 1.91. U20A A24C A69G A141G gave a self-cleavage of 0.56. For U20A A24G A77U A107G, the self-cleavage was 0.92. In the case of U20A A24G A94G U134C, the self-cleavage is reported as 1.2. U20A A24G G32A A43G A78G U108C gave a self-cleavage of 0. U20A A30G A78G U87A showed a self-cleavage of 0.3. U20A A30G G34A U45A U143A gave a self-cleavage of 0.84. With U20A A31U A79G U85C U100C the self-cleavage was 1.84. Work on U20A A42G U73C U96A U132C yielded a self-cleavage of 0. Work on U20A A42U A67G U87A yielded a self-cleavage of 0.03. Work on U20A A43C U102C A141U yielded a self-cleavage of 1.2. U20A A43G U45A gave a self-cleavage of 1.75. With U20A A43G U143A the self-cleavage was 1.03. U20A A43U U52A U130C gave a self-cleavage of 1.21. Variant U20A A50G C76A has a self-cleavage of 0.86. Variant U20A A50G U62C U87A U96C has a self-cleavage of 0. With U20A A50G U143C the self-cleavage was 0.29. With U20A A57G U102C the self-cleavage was 0.47. U20A A57G U109C U115C gave a self-cleavage of 0. Work on U20A A57U U104C yielded a self-cleavage of 0.27. In the case of U20A A59G C99A A136G, the self-cleavage is reported as 0.13. With U20A A59U A78G the self-cleavage was 0.7. With U20A A64G A65G the self-cleavage was 0. Work on U20A A64U U109C yielded a self-cleavage of 0.13. U20A A64U U115C A124G gave a self-cleavage of 0.32. For U20A A65G A141G, the self-cleavage was 0.02. U20A A65G U119C showed a self-cleavage of 0.23. Work on U20A A67G A77G yielded a self-cleavage of 1.07. With U20A A67G G72A U96C U134G the self-cleavage was 0.04. With U20A A67U C98U U102A the self-cleavage was 0.02. U20A A77G A124U A140U gave a self-cleavage of 1.84. With U20A A77G U91C G126A the self-cleavage was 1.34. Variant U20A A77G U119C U130C has a self-cleavage of 1.53. Work on U20A A77U A124G yielded a self-cleavage of 1.13. In the case of U20A A78G A121C, the self-cleavage is reported as 2.04. Variant U20A A79G G122A U134A has a self-cleavage of 1.35. U20A A94G U96C U119C U143A showed a self-cleavage of 0. With U20A A117G G126A A136G the self-cleavage was 2.28. With U20A A129C G135A A140G the self-cleavage was 1.29. Variant U20A C37U G54A has a self-cleavage of 0.21. Variant U20A C38A A42G A94U has a self-cleavage of 0.31. U20A C38A A64G gave a self-cleavage of 0.19. Work on U20A C38G A94U yielded a self-cleavage of 0.39. Work on U20A C113U A129G yielded a self-cleavage of 1.1. U20A G32U U39C A142G gave a self-cleavage of 0.98. U20A G33A U62G showed a self-cleavage of 0.11. In the case of U20A G34A U108C A142G, the self-cleavage is reported as 1.15. In the case of U20A G35A A57G U104A U132A, the self-cleavage is reported as 0.28. Work on U20A G35A C68A U109C A124C yielded a self-cleavage of 0.02. For U20A G40U A50G, the self-cleavage was 2.12. In the case of U20A G58A A64G U87C A136U, the self-cleavage is reported as 0.05. U20A G74A A78G gave a self-cleavage of 0.19. Work on U20A G93U U100C U104C A107G yielded a self-cleavage of 0. U20A G97C U119C gave a self-cleavage of 1.01. U20A U23C C37U A50G U73C U132C gave a self-cleavage of 0.73. For U20A U26A A69U, the self-cleavage was 0.02. For U20A U26A G36A A43G, the self-cleavage was 0.47. With U20A U26A U104A U112C U115C the self-cleavage was 0.76. With U20A U26C A43U U45C the self-cleavage was 0. Work on U20A U26C A50G A77U yielded a self-cleavage of 0.89. In the case of U20A U26C C63U G97U, the self-cleavage is reported as 0.32. With U20A U26G U47A U132A the self-cleavage was 1.01. Work on U20A U29C A57U yielded a self-cleavage of 0.24. Variant U20A U29C U62C A77G has a self-cleavage of 0. U20A U39A U91A A124C showed a self-cleavage of 0.92. U20A U45C A65G A142G showed a self-cleavage of 0.17. U20A U45G G48U A77G U102C A124G gave a self-cleavage of 0.48. U20A U47C A57G A65G showed a self-cleavage of 0.51. Variant U20A U47C A124C has a self-cleavage of 1.39. For U20A U47C U115C, the self-cleavage was 2.17. Variant U20A U47C U130C has a self-cleavage of 1.15. With U20A U52A U130C the self-cleavage was 2.16. U20A U52C C110U gave a self-cleavage of 1.29. Work on U20A U62C A64G U96C G105A yielded a self-cleavage of 0.23. For U20A U62C A78G C146U, the self-cleavage was 0.09. U20A U73A G122U A136G gave a self-cleavage of 1.76. For U20A U73C U85G G89A U104C, the self-cleavage was 0. U20A U81A U104C showed a self-cleavage of 2.46. With U20A U85A A94G U132C the self-cleavage was 0.1. U20A U85C A129G gave a self-cleavage of 0. Work on U20A U91C A140G yielded a self-cleavage of 0.56. U20A U96C U104A gave a self-cleavage of 0.07. Variant U20A U100C U143C has a self-cleavage of 2.19. In the case of U20A U119C A140G, the self-cleavage is reported as 1.63. For U20A U134C U143A, the self-cleavage was 1.52. Variant U20C A22G U29C G54U C95U has a self-cleavage of 0.22. With U20C A22G U47A A124G the self-cleavage was 0.97. Variant U20C A22G U109C A142G has a self-cleavage of 0.84. Work on U20C A22U U62C A121G C133U yielded a self-cleavage of 0.17. U20C A24C A107G gave a self-cleavage of 0.88. Variant U20C A24G A42G G70U U100C A129G has a self-cleavage of 0. Work on U20C A24U A64U yielded a self-cleavage of 0.59. In the case of U20C A24U U26C A31U C38A U96A A142G, the self-cleavage is reported as 0.17.
